This data set deals with ATP. Kind of data set: switch fluorescence ratio, 500 uM ATP over buffer (Cy3 cluster intensity, sum of 5 cycles each) (fold (ratio)); higher = stronger signal-on switching upon ATP binding; sequences stand for … in TCGTCGGCAGCGTCAGATGTGTATAAGAGACAGTTTTTTTTTTTTTTTTTTTTTTTTT…TC. Particulars: aptamer strand: ATP DNA aptamer (quencher-CACCTGGGGGAGTATTGCGGAGGAAGG + anchor), 100 nM annealed; ATP concentration: 500 uM; one replicate. In short, it runs like this: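 For every switch-domain sequence, the fluorescence ratio is the mean of per-cluster values, each being summed target-cycle Cy3 intensity over summed buffer-cycle Cy3 intensity. Clusters outside 100-1000 RFU were excluded. On a modified Illumina MiSeq flow-cell, the Cy3-labelled switching-strand clusters were annealed to 100 nM quencher-labelled ATP aptamer, imaged in selection buffer and then after 15 min with 500 uM ATP at 22 °C. Five such cycles were run, with NaOH stripping and re-annealing between them.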

From the supplement of paper PMC10126150 come the findings set out here.

Sequences with one replicate were seen in a single cluster, so their values are uncertain.
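Also: ATP exposure 15 min at 22 °C before imaging.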

As for ACGGATTAT, the switch fluorescence ratio worked out at 1.04.

On to CCATGACAAC, for which the switch fluorescence ratio stood at 1.02.

Regarding CGCCAAGTTG, the switch fluorescence ratio turned out to be 1.02.

Turning to CAAGGGCGCG, the switch fluorescence ratio worked out at 0.951.

CAGCGTGTTA: the switch fluorescence ratio worked out at 1.

As to AAATTTCTCC, the switch fluorescence ratio was found to be 1.05.

For AGGACATTTA, the switch fluorescence ratio came out at 1.01.

Take ATTGACCCGT: the switch fluorescence ratio was 1.05.

On to TGATATTGAT, for which the switch fluorescence ratio worked out at 0.978.

As for GGTAGCCGGC, the switch fluorescence ratio was found to be 1.02.

Regarding ATCACGGGAG, the switch fluorescence ratio was determined as 1.07.

TTCTGTGCCT: the switch fluorescence ratio came to 1.01.

AGCCATGTGG: the switch fluorescence ratio stood at 0.988.

TCATACCCCT: the switch fluorescence ratio was found to be 1.13.

Consider ATCACCTTAC, for which the switch fluorescence ratio was found to be 2.44.

Turning to AAGCCTTCCA, the switch fluorescence ratio was determined as 1.88.

Turning to TGGAGTCAG, the switch fluorescence ratio worked out at 1.02.

With CGCATGGGT, the switch fluorescence ratio worked out at 1.03.

Consider GCATATATCT, for which the switch fluorescence ratio is 1.06.

Regarding ATCATGACCA, the switch fluorescence ratio was found to be 0.99.

With ACGGGCTCGG, the switch fluorescence ratio amounted to 0.982.

On to TGCGTGTGTG, for which the switch fluorescence ratio was determined as 1.05.

Turning to TGTAATTGGC, the switch fluorescence ratio turned out to be 1.04.

With TAGGACACCC, the switch fluorescence ratio is 1.

For CCAAAAATGC, the switch fluorescence ratio was 1.29.

In the case of AAAACCTAGT, the switch fluorescence ratio stood at 1.05.

With ATGACCCTTT, the switch fluorescence ratio stood at 0.998.

TCGGTTGTTT: the switch fluorescence ratio is 1.04.

On to ACTAATACG, for which the switch fluorescence ratio amounted to 1.12.

For CAACGCGGCA, the switch fluorescence ratio stood at 1.17.

CTACTGGACC: the switch fluorescence ratio was 1.16.

Turning to AGGGTCCTCG, the switch fluorescence ratio is 0.979.

With ATGTAGCTCA, the switch fluorescence ratio was determined as 0.968.

In the case of GTTTCCACTG, the switch fluorescence ratio worked out at 0.943.

With GTCCCAAGTT, the switch fluorescence ratio is 1.03.

Take TTTCGCACGG: the switch fluorescence ratio was 1.06.

Consider ACTCAGACAG, for which the switch fluorescence ratio was determined as 1.1.

CATGTAGGGA: the switch fluorescence ratio amounted to 0.972.

Turning to AACGGGATTG, the switch fluorescence ratio was found to be 0.99.

With GATATTGCC, the switch fluorescence ratio is 0.953.

For CGTGACAACA, the switch fluorescence ratio was 1.04.

With TGGTTCTTAC, the switch fluorescence ratio came to 3.26.

Regarding GATAGACGAT, the switch fluorescence ratio was found to be 0.992.

For the sequence GTCAAAAACT, the switch fluorescence ratio came to 1.09.

For CTAGCAACGA, the switch fluorescence ratio turned out to be 1.17.

With ACCATGTCCG, the switch fluorescence ratio turned out to be 0.978.

Take CTCTCCAGTC: the switch fluorescence ratio was 1.25.

As for CATGACGCTA, the switch fluorescence ratio is 1.79.

As for TATCACTGCA, the switch fluorescence ratio was found to be 1.1.

CCTATCAGTG: the switch fluorescence ratio was determined as 1.08.

CGAAAATGAT: the switch fluorescence ratio is 0.986.

As for GAGGGCACCT, the switch fluorescence ratio is 1.08.

Take GGCATATTGG: the switch fluorescence ratio is 1.06.

As to TCGGTTTTTC, the switch fluorescence ratio was 0.975.

AGAAGATGGG: the switch fluorescence ratio was found to be 0.975.

TCGAGGTACG: the switch fluorescence ratio was found to be 0.96.

For GTCGGCCAGC, the switch fluorescence ratio worked out at 1.

Regarding CCAGGTTTTC, the switch fluorescence ratio was found to be 0.986.

Regarding TTGGTCTTCG, the switch fluorescence ratio worked out at 0.976.

As to TCGGGGACGG, the switch fluorescence ratio is 0.955.

Regarding TCACGTGTGG, the switch fluorescence ratio amounted to 1.02.

Consider TAGATTTTT, for which the switch fluorescence ratio turned out to be 1.01.

Take GCTTGGCAGC: the switch fluorescence ratio was determined as 0.979.

As for GTCCATCGAC, the switch fluorescence ratio was found to be 0.965.

Take CAGGTGGTTA: the switch fluorescence ratio was 1.19.

Consider CGGCAAAAAC, for which the switch fluorescence ratio worked out at 1.98.

As for GAAGGTCTAC, the switch fluorescence ratio was 1.09.

Take TACTGGCTCA: the switch fluorescence ratio amounted to 1.04.

Take TTGACTTAGT: the switch fluorescence ratio was determined as 1.02.

In the case of TGAATATGG, the switch fluorescence ratio amounted to 0.973.

As for AAACCAGTGG, the switch fluorescence ratio is 1.03.

As to GATAGGGTGT, the switch fluorescence ratio was 1.05.

Regarding GTAAGGGGG, the switch fluorescence ratio worked out at 0.97.

Regarding GTGATGTTAA, the switch fluorescence ratio was 0.985.

For GCTAGCATAA, the switch fluorescence ratio was found to be 1.01.

TGAGAAGTAG: the switch fluorescence ratio worked out at 0.971.

Regarding AAACGGCTTG, the switch fluorescence ratio amounted to 0.933.

As to TGTGTTGTGC, the switch fluorescence ratio was 0.986.
